Measurements as given in paper PMC4336329 (PLoS ONE, 2015).
About 14,000 (4.5%) of roughly 310,000 compounds showed an effect of 50% or more. Effects have a minus sign here. Some of the results follow.

Molecular target: human ether-à-go-go-related gene (hERG) potassium channel (human, UniProt Q12809)
Test: primary screen, population patch clamp on CHO cells stably expressing hERG
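Also: peak tail current of the secondary pulse compared with the same well before compound.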

Sequence of human ether-à-go-go-related gene (hERG) potassium channel (Q12809 whole entry, looked up): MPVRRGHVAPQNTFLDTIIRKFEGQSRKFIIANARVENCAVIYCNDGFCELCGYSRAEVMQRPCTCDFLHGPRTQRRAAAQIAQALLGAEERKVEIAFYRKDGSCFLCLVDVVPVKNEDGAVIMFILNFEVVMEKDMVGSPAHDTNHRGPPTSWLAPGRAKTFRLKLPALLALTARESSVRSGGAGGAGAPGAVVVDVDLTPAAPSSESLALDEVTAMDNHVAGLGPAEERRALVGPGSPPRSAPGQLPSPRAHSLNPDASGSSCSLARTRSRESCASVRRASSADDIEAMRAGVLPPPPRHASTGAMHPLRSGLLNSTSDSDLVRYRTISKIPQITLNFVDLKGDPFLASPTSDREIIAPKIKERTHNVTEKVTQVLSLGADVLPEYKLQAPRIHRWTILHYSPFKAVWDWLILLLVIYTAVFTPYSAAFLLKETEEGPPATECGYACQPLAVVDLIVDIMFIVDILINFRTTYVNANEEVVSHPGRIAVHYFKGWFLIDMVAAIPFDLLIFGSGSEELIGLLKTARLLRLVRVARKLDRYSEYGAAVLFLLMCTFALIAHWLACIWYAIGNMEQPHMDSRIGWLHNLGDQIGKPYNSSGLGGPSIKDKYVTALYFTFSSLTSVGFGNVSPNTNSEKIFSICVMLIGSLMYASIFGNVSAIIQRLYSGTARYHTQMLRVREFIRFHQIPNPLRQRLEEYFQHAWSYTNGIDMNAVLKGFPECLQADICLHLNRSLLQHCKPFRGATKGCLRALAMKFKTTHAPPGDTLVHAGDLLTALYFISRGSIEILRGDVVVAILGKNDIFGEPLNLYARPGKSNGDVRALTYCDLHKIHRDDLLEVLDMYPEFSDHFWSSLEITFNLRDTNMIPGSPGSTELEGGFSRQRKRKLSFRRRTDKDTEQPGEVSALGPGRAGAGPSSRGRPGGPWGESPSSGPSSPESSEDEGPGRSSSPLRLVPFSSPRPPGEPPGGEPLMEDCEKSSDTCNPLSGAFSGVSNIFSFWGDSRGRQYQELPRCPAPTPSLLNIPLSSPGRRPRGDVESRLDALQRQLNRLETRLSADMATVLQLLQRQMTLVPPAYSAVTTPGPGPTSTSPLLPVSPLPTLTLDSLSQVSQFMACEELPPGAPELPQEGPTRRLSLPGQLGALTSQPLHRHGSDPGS

Row | Compound | hERG current change (%, negative = inhibition) at 10uM
1 | CCCOC(=O)c1ccc(NC(=O)c2c(Cl)ccc(Cl)c2OC)cc1 | 0.998%
2 | COc1ccc(NS(=O)(=O)c2ccc3c(c2)N(C(C)=O)CC(C)S3)c(OC)c1 (stereo not drawn) | 0.3%
3 | Cc1[nH]cc(Br)c(=O)c1Oc1ncc(C(F)(F)F)cc1Cl | 13.2%
4 | Cc1noc(C)c1CN(C(=S)NC1CC1)c1ccccc1 | -3.32%
5 | COc1ccc(N=C(C)C2=C(O)COC2=O)cc1 | 4.41%
6 | COC(=O)C1=C(c2ccc3ccccc3c2)C[C@@H]2CC[C@H]1N2C(=O)N1CCCCC1 | 2.21%
7 | COC(=O)C1=C(C)NC(=O)CC1c1ccccc1OC (stereo not drawn) | 2.49%
8 | COc1ccc(Cc2nnc(N/N=C/c3ccc(O)cc3)[nH]c2=O)cc1OC | -8.51%
9 | Cc1nn(C)c(Cl)c1C(N)=O | 23.3%
10 | Cc1ccc(/C=C/C(=O)N2CCN(Cc3ccccc3)CC2)o1 | -0.893%
11 | CCN(CC)CCN1C(=O)C(O)=C(C(C)=O)C1c1ccccc1[N+](=O)[O-] (stereo not drawn) | 11.7%
12 | Cc1ccc(C(C)C)c(OCC(=O)c2c(O)c3ccccc3oc2=O)c1 | -1.4%
13 | Cc1ccc(NC(=O)C2C3CCCC2C3c2ccccc2)cc1 (stereo not drawn) | 15.3%
14 | COc1ccc(/C=C/C(=O)c2ccc3ccccc3c2O)cc1CN1CCOCC1 | 2.19%
15 | CNC(=O)c1ccc(NC(=O)c2cc(S(=O)(=O)N3CCOCC3)ccc2N2CCCC2)cc1 | 7.71%
16 | COC(=O)c1ccc(CN2CCC(CO)(Cc3ccccc3Cl)CC2)cc1 | -64.8%
17 | Cn1c(=O)c2c(nc(SCc3ccccc3)n2Cc2ccc(Cl)cc2)n(C)c1=O | 5.98%
18 | COc1ccc([C@H]2CC(=O)C=C(c3cccc(Br)c3)C2)cc1 | -1.14%
19 | COC(=O)c1ccc(NC(C)C(=O)OC)c([N+](=O)[O-])c1 (stereo not drawn) | 4.81%

Row | Compound | hERG current change (%, negative = inhibition) at 10uM
20 | Cc1ccccc1C(=O)NC(=S)Nc1ccc(Cc2ccncc2)cc1 | 10.4%
21 | COc1cc(C(N)=O)cc(Br)c1OC | -12.5%
22 | CN1CCN(c2nc3c(c(=O)[nH]c(=O)n3C)n2Cc2ccc(Cl)cc2)CC1 | -15.5%
23 | Cc1ccc(S(=O)(=O)NC(CC(=O)O)c2ccco2)cc1 (stereo not drawn) | 8.31%
24 | O=S(=O)(CC(c1ccccc1)N1CCCCC1)c1ccc(Cl)cc1 (stereo not drawn) | -0.713%
25 | CCOC(=O)c1c(N)nn(C(=O)CC)c1-c1ccccc1 | 12.7%
26 | C/C(=N/Nc1cc(-c2ccccc2)nc(-c2ccccc2)n1)c1ccc(O)cc1 | 12.1%
27 | Cc1cccc(C(=O)NCC(=O)N(C)CC(=O)Nc2ccc(N3CCOCC3)cc2)c1 | -7.67%
28 | CC(C)C(=O)NNC(=O)c1csc(-c2cccs2)n1 | 0.646%
29 | CCN(CC)CCN(Cc1cc2ccc(C)c(C)c2[nH]c1=O)C(=S)NCc1ccco1 | -51.4%
30 | CCOC(=O)c1sc(NC(=O)COC(=O)c2ccco2)nc1C | 0.15%
31 | O=C(COc1cc(Cl)c(Cl)cc1Cl)NC(=O)Nc1ccc2c(c1)OCCO2 | -0.056%
32 | CCO[C@@H]1OC(C(N)=O)=C[C@H](c2ccc(Br)cc2)[C@H]1CCCO | 1.95%
33 | CN1CC=C2C(C#N)=C(N)C(C#N)(C#N)[C@H](c3cccc(Cl)c3)C2C1 (stereo partly drawn) | -6.67%
34 | C=CCSc1n[nH]c(-c2cccs2)n1 | 14.4%
35 | CCOC(=O)/C(C#N)=C/c1cccc([N+](=O)[O-])c1 | 25%
36 | O=C(O)/C=C\C(=O)Nc1ccccc1F | 16%
37 | O=C(Nc1nc(-c2ccc(Cl)cc2)cs1)NC1CCCCC1 | -0.868%
38 | COC(=O)CCC(=O)OC1(C)C(=O)C=C2C=C(C3CC3)N(CCN3CCOCC3)C=C2C1=O (stereo not drawn) | 9.64%

Row | Compound | hERG current change (%, negative = inhibition) at 10uM
39 | COc1ccc(NC(=O)NCc2cccnc2)cc1OC | 13.4%
40 | COc1cccc(-n2c(=S)[nH]c3c(oc4ccccc43)c2=O)c1 | 19.2%
41 | CCCC(=O)Nc1cc(-c2nn(C)c(=O)c3ccccc23)ccc1OC | -31.8%
42 | Cc1cccc(N2CCN(C(=O)C34CC5CC(CC(C5)C3)C4)CC2)c1C | 11.3%
43 | C#CCOCCOCCOCCNc1nc(N2CCN(C(=O)Cn3cc(CCCC[NH3+])nn3)CC2)nc(N2CCN(C(=O)[C@H]([C@@H](C)CC)n3cc(CCC[NH+]=C(N)N)nn3)CC2)n1.[Cl-] | 13.5%
44 | COc1ccc(C(=O)Nc2ccccc2N2CCOCC2)cc1S(=O)(=O)N1CCCC1 | -24.5%
45 | C/C(=N\NC(=O)c1ccco1)c1ccc(NC(=O)c2cccs2)cc1 | 5.09%
46 | CCN(CC)CCNC(=O)c1ccc(CS(=O)(=O)c2ccccc2C)o1 | -24%
47 | Cc1ccsc1/C=N/n1cnnc1 | 9.58%
48 | CCOC(=O)c1c(NC(=O)Cn2cnc([N+](=O)[O-])n2)sc(C)c1C | 11%
49 | O=C(CSc1nnnn1Cc1ccccc1)c1ccccc1F | -21.3%
50 | CC1(C)CC(=O)C=C(NCCN2CCN(C(=O)Nc3ccccc3)CC2)C1 | -6.06%
51 | Cc1cc(F)ccc1NC(=O)Nc1ccc2c(c1)OCO2 | 22.3%
52 | CN(C)c1nc(N/N=C/c2c[nH]c3ccccc23)nc(N2CCOCC2)n1 | 8.45%
53 | COc1ccccc1OCCNC(=O)Cc1ccc(S(=O)(=O)N2CCOCC2)s1 | -5.38%
54 | COc1ccc(-c2cc(-c3ccc(O)cc3)nc(N)c2C#N)cc1 | 3.91%
55 | O=C(COc1ccc(Cl)cc1)Nc1ccc2c(c1)CCC2 | 0.759%
56 | CC(C)(C)C1CCC(=NNC(=O)c2ccco2)CC1 (stereo not drawn) | 13.3%
57 | CCN(CC)CCCNc1cc2n(c(=O)n1)CCc1cc(OC)c(OC)cc1-2 | -7.63%
